Test results reported in PubChem BioAssay AID624417 (National Center for Advancing Translational Sciences (NCATS), 2012).
Screen size: about 410,000 compounds; about 6,400 (1.6%) were called active. Inconclusive means that the source gave no clear call. Such entries were picked first, then a sample of the others. Calls come from the whole dose curve; as a rule, active = well fitted inhibition curve with a large enough effect; inconclusive = small, poorly fitted or top-dose-only effect; inactive = no such curve, though single readings can be large or run the other way. Potencies of inconclusive entries are left out as doubtful fits.

Molecular target: Glucagon-like peptide 1 receptor (Homo sapiens) (UniProt P43220)
Assay: qHTS of GLP-1 Receptor Inverse Agonists (Inhibition Mode); note: nearly all actives have a fitted effect of over 55% in size
Settings: HEK293 GLP-1R CRE-luciferase, luminescence, 24 h, GLP-1R form is constitutively active; series mostly up to 38.3 µM
How it was run: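 Inverse agonists were sought by their lowering of basal cAMP reporter luciferase output in HEK293 cells stably carrying constitutively active human GLP-1R, after 24 h compound treatment.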
Potency is the fitted concentration of half-maximal effect; tags give direction and shape of the fitted curve.

Sequence of UniProt P43220 (P43220 whole entry, looked up): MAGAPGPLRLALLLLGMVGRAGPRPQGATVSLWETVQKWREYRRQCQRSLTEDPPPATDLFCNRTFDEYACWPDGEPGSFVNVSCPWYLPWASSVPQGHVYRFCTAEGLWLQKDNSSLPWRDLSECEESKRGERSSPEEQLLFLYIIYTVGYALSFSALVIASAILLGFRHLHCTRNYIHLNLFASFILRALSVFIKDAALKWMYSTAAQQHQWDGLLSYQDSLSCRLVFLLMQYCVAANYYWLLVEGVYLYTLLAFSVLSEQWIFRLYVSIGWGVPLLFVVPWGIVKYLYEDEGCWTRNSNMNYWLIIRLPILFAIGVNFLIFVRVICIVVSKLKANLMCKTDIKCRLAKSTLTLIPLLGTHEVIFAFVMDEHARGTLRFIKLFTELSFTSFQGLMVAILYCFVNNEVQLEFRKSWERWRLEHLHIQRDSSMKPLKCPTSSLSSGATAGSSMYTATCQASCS

Compound	Potency
CCOc1ccc(/C=N/NC(=O)c2c(C)n(C)c3ccc(OC)cc23)cc1	inconclusive [inhibitor, single point]
O=C(O)c1cccc(N(CCO)CCO)c1	inactive
CC(=O)C1C(=O)c2c(cccc2[N+](=O)[O-])C1=Nc1cccc(Cl)c1 (configuration not stated)	inconclusive [inhibitor, single point]
CC1CCCCN1C(=O)COC(=O)CSc1ccc(C(N)=O)cc1[N+](=O)[O-] (configuration not stated)	inactive
Cc1ccc(NC(=O)CN2CCc3cc4c(cc3C2C)OCCCO4)cc1 (configuration not stated)	inconclusive [inhibitor, partial curve, poor fit]
COc1ccc(C2/C=C\CN(C(=O)c3ccc(C)cc3)CC(=O)N2Cc2ccc(F)cc2)cc1 (configuration not stated)	inactive
O=C(NC1CCCCC1)C(c1ccncc1)N(Cc1ccccc1)C(=O)c1ccc(-c2ccccc2)[nH]1 (configuration not stated)	inconclusive [inhibitor, single point]
Cc1cc(C(=O)OCC(=O)Nc2ccccc2Br)c(C)o1	inconclusive [inhibitor, single point]
Cc1cc(C)c2nc(C)cc(Nc3ccc(C(=O)N(C)C)cc3)c2c1	inconclusive [inhibitor, single point]
COCCNc1c(-c2ccc(OC)c(OC)c2)nc2ccc(Cl)cn12	inactive
CC1=NN(C(N)=S)C(=O)C1N=Nc1cccc([N+](=O)[O-])c1 (configuration not stated)	inconclusive [inhibitor, full curve, poor fit]
CC(C)c1ccc(NS(=O)(=O)c2ccc(-n3cccn3)cc2)cc1	inconclusive [inhibitor, single point]
Cc1ccc(-c2cn3c(n2)sc2cc(C(=O)NCCCN4CCCCCC4)ccc23)cc1	inactive
C/C(=N\Nc1ccc(S(=O)(=O)N2CCOCC2)cc1[N+](=O)[O-])C(C)C	inactive
CCc1ccc2oc(C(=O)N(Cc3ccc(N(C)C)cc3)Cc3ccco3)c(C)c2c1	inconclusive [inhibitor, partial curve, poor fit]
O=C(CCS(=O)(=O)c1ccc(Cl)cc1)NCCc1c[nH]c2ccccc12	inconclusive [inhibitor, partial curve, poor fit]
COc1ccc(C(C(=O)NC2CCCCC2)N(C(=O)CCl)c2ccc(C)cc2)cc1 (configuration not stated)	inactive
CCCCNC(=O)c1cc2cccc([N+](=O)[O-])c2[nH]1	inconclusive [inhibitor, partial curve, poor fit]
COCCn1c(CN(Cc2ccccc2)Cc2ccccc2)nc2c1c(=O)n(C)c(=O)n2C	inconclusive [inhibitor, partial curve, poor fit]
O=C(OCc1ccc(O)cc1)c1c(-c2ccsc2)oc2ccc(N3CCOCC3)cc12	inactive
COc1ccccc1C(=O)NCCSCc1c(F)cccc1Cl	inconclusive [inhibitor, single point]

Compound	Potency
COc1ccc(/C=N/NC(=O)c2ccc3c(c2)OCO3)cc1	inconclusive [inhibitor, single point]
Fc1ccc(/C=C2\CCCC3=C2Nc2ncnn2C3c2ccc(F)cc2)cc1 (configuration not stated)	inconclusive [inhibitor, full curve, poor fit]
CCCCOc1ccc(/C(N)=N/O)cc1	inactive
CC(C)N(CC#CCC1(O)c2ccccc2-c2ccccc21)CCO	inactive
COc1ccc2c(C)c(CC(=O)NCCc3ccc(Cl)cc3)c(=O)oc2c1C	inactive
COCC(=O)N1CCC(n2nnc3cc(F)ccc32)CC1	inactive
O=C1CCCC(O)=C1N=Nc1ccc(S(=O)(=O)N2CCOCC2)cc1	inconclusive [inhibitor, single point]
CCOC(=O)c1ccc(S(=O)(=O)Nc2cc(C(C)(C)C)no2)cc1	inconclusive [inhibitor, single point]
CC(C(=O)N(C)C1CCS(=O)(=O)C1)N1C(=O)/C(=C/c2ccc(F)cc2)SC1=S (configuration not stated)	inconclusive [inhibitor, partial curve, poor fit]
CCOc1ccc(NC(=O)CSC2=Nc3ccccc3C3=NC(CC(=O)NCc4cccs4)C(=O)N23)cc1 (configuration not stated)	inconclusive [inhibitor, partial curve, poor fit]
O=[N+]([O-])c1cccc(C2CC(c3ccccc3)=NN2c2ccccc2)c1 (configuration not stated)	inconclusive [inhibitor, partial curve, poor fit]
CCOC(=O)C(CC)(CC)C(=O)/C=C/c1ccc(OC)cc1	inconclusive [inhibitor, partial curve, poor fit]
COc1ccc(N/C=C(\[N+](=O)[O-])S(=O)(=O)c2ccccc2)cc1	inconclusive [inhibitor, single point]
COC(=O)C1=CNC=C(C(=O)OC)C1c1ccc(Cl)cc1	inconclusive [inhibitor, single point]
Cc1ccc(S(=O)(=O)N2CCCC2C(=O)NCCc2ccccc2)cc1 (configuration not stated)	inconclusive [inhibitor, partial curve, poor fit]
[O-]/C(=C(\C(=S)Nc1cccc2ccccc12)[n+]1ccccc1)c1ccc(OC(F)F)cc1	inconclusive [inhibitor, single point]
COC(=O)CSc1[nH]c2ccc(Br)cc2c1[N+](=O)[O-]	inactive
COc1ccc(NS(=O)(=O)c2ccc(OC)c(NC(=O)CCC3CCCC3)c2)cc1	inconclusive [inhibitor, single point]
CCn1cc(CN2CCc3c([nH]c4ccccc34)C2c2cccc(OC)c2OC)c(C)n1 (configuration not stated)	inconclusive [inhibitor, partial curve, poor fit]
C/C=C(/C(=C/C)c1ccc(O)cc1)c1ccc(O)cc1	inconclusive [inhibitor, partial curve, poor fit]
O=C(CCNS(=O)(=O)c1ccccc1C(F)(F)F)NCCCN1CCOCC1	inactive
